This is an account of results in the supplement of paper PMC11417369.

± gives the standard deviation of the averaged measurements. Some of the results follow.

For the test, the system named is PfAP2-I AP2 domain 3 (GST-tagged). The test can be described thus: gcPBM binding intensity (ln(normalized median fluorescence intensity)); higher = stronger DNA binding. The method, boiled down: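 Alexa488 anti-GST antibody, scanned at 488 nm, detected GST-tagged P. falciparum DNA-binding domains that had been expressed in E. coli and incubated for 1 h on an Agilent 4 × 180k array. The array carried primer-extended double-stranded 36-bp intergenic genomic probes and negative controls. Binding intensity is the highest Masliner-normalised natural-log median intensity across replicate spots of either orientation of each probe.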
Regarding “TACATTTTTATTTTTACACACATATATATATATATA [CACACA_site1021]”, the “gcPBM binding intensity (ln)” value was determined as 9.28 ± 0.33. For “AAGTATTATTATAAGACACACATGTATATAAGTATA [CACACA_site1479]”, the “gcPBM binding intensity (ln)” value is 7.67 ± 0.5.

“TTAAGTATTTTACGTACACACTTATAAATGTACAGG [CACACA_site6012]”: the “gcPBM binding intensity (ln)” value amounted to 7.92 ± 0.3. In the case of “TATAATATATTTATATGTACTTATTTATTTATATAT [XGTACX_site6519]”, the “gcPBM binding intensity (ln)” value was determined as 7.59 ± 0.3. On to “GAGTTTATTCTTTTTATACACACCTTATTTGATTAA [CACACA_site735]”, for which the “gcPBM binding intensity (ln)” value is 7.97 ± 0.73. Take “TATTATTTTATGAGACATAAAAAAAAAAAAAAAAAA [CACACA_negctrl_site1534]”: the “gcPBM binding intensity (ln)” value was determined as 8.08 ± 0.67.

As for “TCTTTATATATATATATATGTGTGAATGTTAAGTAT [XGTACX_negctrl_site135]”, the “gcPBM binding intensity (ln)” value came out at 8.21 ± 0.54. For the sequence “ATTTTTTTTTTTTCCTTACACACATATTTCATTTTA [CACACA_site748]”, the “gcPBM binding intensity (ln)” value is 7.96 ± 0.57. Turning to ATATATATATATATAGTGCATAATGTTTTAATAGAT, the “gcPBM binding intensity (ln)” value stood at 11 ± 0.33. Turning to “AAATTGTCTGCATATAGTACATAAATATATTAATAT [XGTACX_site4557]”, the “gcPBM binding intensity (ln)” value was found to be 7.88 ± 0.49.

Regarding “ATATATAAAATATATTGTACATTAACATATATATTT [XGTACX_site2055]”, the “gcPBM binding intensity (ln)” value was 7.54 ± 0.47. Take “GTAATATTATATAGTTGTACTTTTTTTTTATTATAT [XGTACX_site483]”: the “gcPBM binding intensity (ln)” value is 8.15 ± 0.32.

As to ATATATAAATAAATAGTGCATTTTAATATTTAACGT, the “gcPBM binding intensity (ln)” value stood at 10 ± 0.18. For the sequence “AAACTTGACGGACACACACACACATATATAAAAAAA [CACACA_site4577]”, the “gcPBM binding intensity (ln)” value was determined as 8.25 ± 0.41. In the case of “AGTAAAAGAAAGCACACACACATGTATATATGTATG [CACACA_site3858]”, the “gcPBM binding intensity (ln)” value was determined as 8 ± 0.3. For “CAATATAAAAAACACACGCACACAAAAAAAAAAAAA [CACACA_site3521]”, the “gcPBM binding intensity (ln)” value turned out to be 8.07 ± 0.7. As for “TTTAAATATTTTAACACACTCATATTTAGGTTACAA [CACACA_site5685]”, the “gcPBM binding intensity (ln)” value turned out to be 7.82 ± 0.59. “TCCATATATATTATGTGTACATATTATATATATAAA [XGTACX_site7525]”: the “gcPBM binding intensity (ln)” value worked out at 7.83 ± 0.13.

For the sequence “TTTACATATTTATATACACACTTTTGCGTGTCTGGT [CACACA_site4750]”, the “gcPBM binding intensity (ln)” value worked out at 7.7 ± 0.51. For “TAATCCATAAGAAGCACACACATATAAATATATTTT [CACACA_site6774]”, the “gcPBM binding intensity (ln)” value is 7.85 ± 0.37. In the case of “AGTGTGTGTGCGTATAGTACATATACATATATACAC [XGTACX_site6882]”, the “gcPBM binding intensity (ln)” value worked out at 8.35 ± 0.42.

For “ATAATACAAAATACATGTACAAATATTTTTCATATT [XGTACX_site1721]”, the “gcPBM binding intensity (ln)” value worked out at 7.83 ± 0.33. The result for “TAGTACACACAAAATACATGCGGGGTTTAATATTTA [TGCATGCA_site576]” reads 7.87 ± 0.45; that for “AATTCTTTCATATATTGTACGTATTCCCATAAAATA [XGTACX_site5923]”, 8.28 ± 0.53; that for “GTTCTTTCAAGTTATACACACCAAAAAAAAAAAAAA [CACACA_site7435]”, 8.27 ± 0.29. Turning to “AATATCATCAAACGCACACATACATAAATATATTAT [CACACA_site2174]”, the “gcPBM binding intensity (ln)” value turned out to be 8.61 ± 0.23. The result for “AACGGGGCCAAGAAATATAAATAATCAAAACAAAAA [XGTACX_negctrl_site320]” reads 7.97 ± 0.42; that for “TGTGCACGCATATACACACACAAATACAATGATAAA [CACACA_site6656]”, 8.92 ± 0.11; that for “TTTCTTTATTTTTTTTTTTTTTTTTTTCCTTTTTTT [TGCATGCA_negctrl_site231]”, 7.45 ± 0.46. The result for “TGTTATATTTGTGCGTGTACACATTTGAAAAAATAT [XGTACX_site3796]” reads 8.59 ± 0.35. The result for “TAAATAATAATAAAATGTACATTATATATGTATATG [XGTACX_site8672]” reads 7.66 ± 0.41. On to “TTTTTTTTTTTTTTCTGTACTGATACTTATAGAGTT [XGTACX_site4736]”, for which the “gcPBM binding intensity (ln)” value worked out at 7.94 ± 0.51. Regarding “TTTTTTCTTTTTATAACACACAGGTGAAAAATAATA [CACACA_site1850]”, the “gcPBM binding intensity (ln)” value was 7.92 ± 0.38.

Turning to “TCCTGTTGAGAATGGCGTACATATAAATATTATATA [XGTACX_site1841]”, the “gcPBM binding intensity (ln)” value came to 7.88 ± 0.15.

Regarding “TTTCCTCATTTTATCATACACACTTGTTTATATGTG [CACACA_site8202]”, the “gcPBM binding intensity (ln)” value worked out at 7.81 ± 0.57. In the case of “AAATAATAAATATATCGTACAAATATCATATATAAA [XGTACX_site2771]”, the “gcPBM binding intensity (ln)” value amounted to 7.43 ± 0.38. Take “CAGGTTCTTATATAGTGTACTATAGACATTCAATTG [XGTACX_site7239]”: the “gcPBM binding intensity (ln)” value stood at 7.85 ± 0.48. To “TATTACTTTATATATACACACATATAACATAAATGC [CACACA_site3948]” belongs 7.83 ± 0.49.

For “TCTTGTTATAATAATCAATATATGGGTATACTTATG [CACACA_negctrl_site1618]”, the “gcPBM binding intensity (ln)” value is 7.61 ± 0.54. On to “AAAAGGATTTTTTATACACACACTAACTAATGTATA [CACACA_site2356]”, for which the “gcPBM binding intensity (ln)” value was 7.73 ± 0.61. As to “AAAAAAATAAATAAGACACACACAAAAAAAAAAAAA [CACACA_site8404]”, the “gcPBM binding intensity (ln)” value is 8 ± 0.83. Take “ACCCATATTCTTTTTACACACTTGAATAAAAAATAT [CACACA_site4797]”: the “gcPBM binding intensity (ln)” value was determined as 8.2 ± 0.4. The result for “GAGATATAAAAGTGTACACATATTGTTATCCATATT [CACACA_site5441]” reads 8.02 ± 0.36. As for “AATAAAAAATAAAAAAGTACATGATGAAAAGGTTTA [XGTACX_site7615]”, the “gcPBM binding intensity (ln)” value is 8.04 ± 0.5.

As for “TCCCTGATGTTATTTAATATACCATAAAAAAAAAAA [CACACA_negctrl_site1472]”, the “gcPBM binding intensity (ln)” value was found to be 7.91 ± 0.61.

In the case of “ATCTCAAATATAATAAATTATTAGGTATATATATAT [CACACA_negctrl_site1828]”, the “gcPBM binding intensity (ln)” value is 9.11 ± 0.24.

As to “TATATATATATATATACATGCATACAATTTTATGAG [TGCATGCA_site466]”, the “gcPBM binding intensity (ln)” value was 9.54 ± 0.67. As for “CACACTTTATAATGTTGTACGATACATTATACCAAA [XGTACX_site941]”, the “gcPBM binding intensity (ln)” value stood at 7.82 ± 0.43. To “TTTTATTCATCATATTGTACATTCTTGTATTTATAG [XGTACX_site8534]” belongs 7.83 ± 0.4; to “ATATACTTACATATTACACACAATATTTTTAAATGG [CACACA_site5916]”, 7.74 ± 0.54. The result for “TATTTATAATTAAATACACACATATATTATAGATTT [CACACA_site6435]” reads 7.54 ± 0.47; that for “TTGTATATACTATACACACACATACATACATACATA [CACACA_site814]”, 8.03 ± 0.76; that for “CTTTTGCCCAAAAAGGTACACACCACAAAGTACATA [CACACA_site8169]”, 8.15 ± 0.52. “CCAAACAAAAAAAAAAGTACATAAAACACCTATTTG [XGTACX_site5645]”: the “gcPBM binding intensity (ln)” value was 7.83 ± 0.54. Regarding “ATAATTAGGGTGTATTTCATTTCATTTCATTTTATT [CACACA_negctrl_site1418]”, the “gcPBM binding intensity (ln)” value was found to be 7.87 ± 0.6. Consider “AATATATAAATATATACACACAAAAACATATATATA [CACACA_site1318]”, for which the “gcPBM binding intensity (ln)” value was 7.87 ± 0.69. Consider “TATATACAAATATGTACACACATTACAGATGTACAT [CACACA_site6586]”, for which the “gcPBM binding intensity (ln)” value is 7.87 ± 0.26.
